# According to PubChem BioAssay AID485294 (National Center for Advancing Translational Sciences (NCATS), 2010):
# Out of some 370,000 compounds screened, about 150 (0.041%) were called active. Inconclusive means that the source gave no clear call. Such entries were picked first, then a sample of the others. Calls follow the shape of the dose curve; as a rule, active = well fitted inhibition curve with a large enough effect; inconclusive = small, poorly fitted or top-dose-only effect; inactive = flat fitted curve, though single readings scatter. Potencies of inconclusive entries are left out as doubtful fits.
# Molecular target: Beta-lactamase (Escherichia coli (strain K12)) (UniProt P00811)
# Experiment: qHTS Inhibitors of AmpC Beta-Lactamase (assay with detergent); also: nearly all actives have a fitted effect of over 25% in size
# Settings: AmpC hydrolysis of nitrocefin, absorbance 480 nm, 0.01% Triton; series mostly up to 114 µM
# In short: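 20 mM phosphate pH 7.0 + 0.01% (detergent screen) or 0.0001% Triton X-100; 5.3 nM AmpC reagent; cpd preinc 15 min RT; nitrocefin (800 uM stock) to start; A480 q20 s × 4 min; Activity was normalised to no-enzyme and no-compound control wells.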
# Potency is read from the fitted curve at half-maximal effect; tags tell the direction and shape of the fitted curve.
# Chain of UniProt P00811 (P00811 whole entry, looked up): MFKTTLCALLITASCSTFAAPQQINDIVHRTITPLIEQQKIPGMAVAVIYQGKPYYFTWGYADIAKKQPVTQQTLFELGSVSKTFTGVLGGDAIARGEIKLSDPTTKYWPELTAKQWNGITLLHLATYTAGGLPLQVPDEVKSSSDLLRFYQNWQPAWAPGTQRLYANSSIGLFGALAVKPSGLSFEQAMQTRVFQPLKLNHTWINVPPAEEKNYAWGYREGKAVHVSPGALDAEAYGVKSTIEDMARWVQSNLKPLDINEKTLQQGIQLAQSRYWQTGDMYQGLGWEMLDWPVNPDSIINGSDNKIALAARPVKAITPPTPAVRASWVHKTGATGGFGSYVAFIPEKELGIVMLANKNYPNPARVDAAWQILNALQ
row,SMILES,Potency
1,O=C(COC(=O)c1ccccc1NCc1ccco1)Nc1ccc2c(c1)OCO2,inactive
2,Cc1ccc(C(C(=O)NC(C)(C)C)N(C(=O)c2csnn2)c2ccccc2F)o1 (configuration not stated),"inconclusive [inhibitor, partial curve, poor fit]"
3,CCN1C(=O)[C@H]2[C@@H](c3ccc(C)cc3)N3C(=O)N(c4ccccc4)C(=O)[C@@]3(Cc3ccc(Cl)cc3)[C@H]2C1=O,"inconclusive [inhibitor, full curve, poor fit]"
4,COc1ccc(OC)c(CNCc2c(C(=O)O)n(Cc3cccc(F)c3)c3cc(OC)ccc23)c1,"inconclusive [inhibitor, single point]"
5,CCN1CCCC1CN(Cc1cc2c(C)cc(C)cc2[nH]c1=O)C(=O)NC1CCCCC1 (configuration not stated),"inconclusive [inhibitor, full curve, poor fit]"
6,COc1ccc(Br)cc1C(=O)N/N=C/c1ccc([N+](=O)[O-])cc1,inactive
7,COC(=O)c1ccc(OC(C)C(=O)c2ccc(C)cc2)cc1 (configuration not stated),"inconclusive [inhibitor, partial curve]"
8,CC1=CC(C)(C)N=C(Nc2ccc(C)cc2)S1,inactive
9,C=CCOC(=O)c1sc(NC(=O)c2ccco2)nc1C,"inconclusive [inhibitor, partial curve, poor fit]"
10,CCOc1ccc(CN2C(=O)c3ccccc3C2=O)cc1C(=O)Nc1nnc(SCC)s1,"inconclusive [inhibitor, full curve, poor fit]"
11,CC(CCc1ccccc1)NC(=O)CCNS(=O)(=O)c1ccccc1 (configuration not stated),inactive
12,COc1ccc(CCNC(=O)CN2C(=O)COc3ccc(S(=O)(=O)N4CCCC4)cc32)cc1OC,"inconclusive [inhibitor, full curve]"
13,Cc1ccc(Cl)cc1N1CCN(c2nc3ccccc3c3nc(-c4cccnc4)nn23)CC1,inactive
14,CC(=O)O[C@@]12CO[C@@H]1C[C@@H](O)[C@@]1(C)C(=O)[C@H](O)C3=C(C)[C@@H](OC(=O)[C@H](O)[C@@H](NC(=O)c4ccccc4)c4ccccc4)C[C@@](O)([C@@H](OC(=O)c4ccccc4)C12)C3(C)C (some centres not stated),inactive
15,COc1ccc2[nH]c3c(c2c1)[C@@H]1CCN2C(=O)CCC[C@H](C3)[C@H]12,"inconclusive [inhibitor, partial curve, poor fit]"
16,O=S(Cc1ccccc1)CC(O)(c1ccc(Cl)cc1)c1ccc(Cl)cc1 (configuration not stated),inactive
17,COc1ccc(/C=C/C(=O)NC(=S)N2C[C@H]3C[C@H](C2)c2cccc(=O)n2C3)cc1,"inconclusive [inhibitor, partial curve, poor fit]"
